In the RNAGym collection of RNA variant scans (doi:10.1101/gad.245936.114) one finds nonsense suppression data, which are given here for 167 variants.

Variants at the background level are over-represented here.

To fix the notation:
B1: tRNA (parent)
chain: CUCUCGGUAGCCAAGUUGGUUUAAGGCGCAAGACUUUAAUUUAUCACUACGAAAUCUUGAGAUCGGGCGUUCGACUCGCCCCCGGGAGAUUUUUUCCUCGAGCAA

This data set covers variants of B1. As to the kind of experiment: nonsense suppression (GFP-seq) (ratio to wild type); higher = more function; SUP4oc tRNA, yeast GFP reporter sort-seq. An outline of the steps:
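Yeast carrying genome-integrated SUP4oc tRNA variants from a library with ~3% random mutations were grown in raffinose/galactose medium with 80 mg/L adenine. Each strain also carried a galactose-driven GFP ochre reporter and RFP. Cells were sorted into GFP/RFP bins, and each bin was Illumina-sequenced (phred ≥30). Nonsense suppression (GFPSEQ) is the bin median GFP/RFP, weighted by each variant's estimated cell share per bin, relative to wild-type SUP4oc; variants needed ≥100 reads and ≥30 cells.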
On to A13U U21G A33G, for which the nonsense suppression was at most 0.026.

On to U20G U57A G59C G85U, for which the nonsense suppression is at most 0.026. Turning to G61C U63G, the nonsense suppression stood at 0.12. The value for U17G U21C was 1.05; that for C3U C29G was at most 0.026. Next, U17G A87G: 0.752; U21C A23U A33C C75A: at most 0.026; U8C U17A U57A U76G C81A: at most 0.026. In the case of A62U G84C, the nonsense suppression amounted to 0.0347. C12G G88U: the nonsense suppression is at most 0.026. The value for U17C U58G was at most 0.026; that for C11U A23G C27G G78C G85C was at most 0.026. The value for U22C A30U C83A was at most 0.026; that for C1G C3G G78A G84A was at most 0.026. In the case of U22C U35C U70A, the nonsense suppression is at most 0.026. Take G26U G65C U71A G78U: the nonsense suppression was at most 0.026. Next, A54C U70G: at most 0.026; U55C C72U: at most 0.026. The value for C11U C29A was at most 0.026; that for U70A A74G was at most 0.026. Next, G15A A33C U71C: at most 0.026; A23G U70C: at most 0.026; A31U G67C U70A C81A: at most 0.026. For the variant U17C C34G C68A C82G, the nonsense suppression is at most 0.026.

As for C5U G7U C34G U70A, the nonsense suppression was at most 0.026. Consider A60C G67A, for which the nonsense suppression is at most 0.026. The value for C1G U4C A13U C72U was at most 0.026; that for U2C U21G was at most 0.026. The value for A33G A54G A74C was at most 0.026; that for U57G G65U was at most 0.026. The value for G15C G19C was at most 0.026; that for C11A U17C was at most 0.026. Take G10A C75G: the nonsense suppression is at most 0.026. Next, G7A U58G U70G: at most 0.026; U63A: 1.05. Next, C12A G15C: at most 0.026. Next, C3G C11G A74C C79U: at most 0.026.

On to A9C U17G C34U C77U C83G, for which the nonsense suppression was at most 0.026. Consider A14U A60C G66A G67A, for which the nonsense suppression is at most 0.026.

As for C3G G6C U16C C72U U76A, the nonsense suppression was at most 0.026. The value for C11G U71C was at most 0.026; that for A23U G59A was at most 0.026.

Turning to C11G G28C C29A U35C C68G, the nonsense suppression is at most 0.026. The value for C77G C81G G85A was at most 0.026; that for C1A C34A G69A was at most 0.026. The value for A54G U57A G85U A87C was at most 0.026. For the variant C68U C81A G88A, the nonsense suppression is at most 0.026.

On to C29A C83U, for which the nonsense suppression is at most 0.026. The value for G10C G59A was at most 0.026; that for A31U U55A G67A A74G was at most 0.026.

Take G6U C82A A87U: the nonsense suppression was at most 0.026. The value for C1U G19U U35G A87C was at most 0.026. Turning to U55A U57G C72A G78C, the nonsense suppression was at most 0.026. Consider U8C G69U, for which the nonsense suppression is at most 0.026. The value for C3U G73C A87C was at most 0.026. The value for U17C C64G G69U was at most 0.026; that for U20C A87U was 0.0273; that for G10U U21A was at most 0.026. The value for U2A A31C C79G was at most 0.026; that for A23U U63G C80U was at most 0.026; that for U8G A23C was at most 0.026.

On to U17G U22C G73C, for which the nonsense suppression was at most 0.026.

On to A31C U55A A60C A74U, for which the nonsense suppression is at most 0.026.

On to G65C C77A, for which the nonsense suppression was at most 0.026. With C5A G78U A89C, the nonsense suppression is at most 0.026. The value for A14C G61U U63G U71G C81G was at most 0.026; that for G15U G25A C29A C34G was at most 0.026. As to C1A G28A A87C, the nonsense suppression is at most 0.026. Next, A33U G78A: at most 0.026. Next, U22G G25U C82U: at most 0.026; C1U G15U U17G U35C U57C A87G: at most 0.026; C34U A74U: at most 0.026. The value for G26C G67A G86C was at most 0.026. In the case of A31G G32C U57C, the nonsense suppression is at most 0.026. Next, G19C U20G C72G: at most 0.026; C12A A33G C68A A74C: at most 0.026; A13U C34G U35A U58G: at most 0.026. The value for U2G G85A was at most 0.026; that for U63A U71C was at most 0.026; that for U55C C56A was at most 0.026. Next, C3A A13C: 0.0261. For the variant G10C G85U, the nonsense suppression was at most 0.026. Next, U16G U63A: 1.09. Next, G61A G65A: 0.127; A9U A24U A62G: at most 0.026; A13U U16G: 0.819.

As to A60U G65C U71C, the nonsense suppression is at most 0.026. Turning to A24C G65U, the nonsense suppression is 0.0266. The value for C11U G26A A60G U71G was at most 0.026; that for G25C U55C was at most 0.026; that for U17C G19C U35G C64U G88A was at most 0.026. A33G G73U: the nonsense suppression is at most 0.026. As for U2G C79G C80A, the nonsense suppression is at most 0.026. Next, G28C U35A U57G: at most 0.026; A9U G65U: at most 0.026; U20G G85A A87C: at most 0.026. In the case of C3A A30U, the nonsense suppression is at most 0.026. Regarding A30C C81G, the nonsense suppression is at most 0.026. The value for U21C A74G G86C was at most 0.026. Next, C56G U57G A74C: at most 0.026; A9C A24C U76G: at most 0.026.

Take U2C C11G C12A C27U G66C: the nonsense suppression is at most 0.026.

As to G66A C75A C80A, the nonsense suppression was at most 0.026. Regarding U2C A9C C75A, the nonsense suppression is 0.038. Next, G26C A54C G73C U76G G78C: at most 0.026. The value for C77G A87G was at most 0.026; that for A24C C34A G69U was at most 0.026; that for A24U A30U U57G A74C G88C was at most 0.026. The value for A14G G61A was at most 0.026; that for A9G G19A G73C was at most 0.026. In the case of C29U A87G, the nonsense suppression was 0.438.

As to A24G U35G U55G, the nonsense suppression is at most 0.026. As for G18A C56A, the nonsense suppression is at most 0.026. The value for U4G A14G U21G G26A C56A was at most 0.026; that for A33G C64G G86A was at most 0.026. Next, C5G G28U A31G: at most 0.026; G18U G28U U70C C81A: at most 0.026.

Turning to A31C G32U, the nonsense suppression was at most 0.026. The value for G26A C72G was at most 0.026. Next, U22G G78U C82A: at most 0.026.

For A9U C34A C68A G69C, the nonsense suppression was at most 0.026.

C11U U21G A89C: the nonsense suppression is at most 0.026. The value for C1A A14C U35A was at most 0.026; that for U58A G59A A62G was at most 0.026; that for U2A C81U was 0.0376. On to U2A C5U G6C C12A U63A G65C G86A, for which the nonsense suppression is at most 0.026. The value for U4G C34U U55C was at most 0.026; that for A54G C79U was 0.0263; that for A24U U58G G61C was at most 0.026. The value for G28U G73C C75G was at most 0.026. In the case of U4G A9G G65C U70A, the nonsense suppression was at most 0.026. For the variant A30C C83A A89G, the nonsense suppression was at most 0.026. The value for U22C G67U was at most 0.026.

For U4C U8G, the nonsense suppression is at most 0.026. Next, U21G A23U A31G G69C G78C: at most 0.026; A24C U58G G86U: at most 0.026. The value for C1G C11G G15U U17C A23U U63C was at most 0.026; that for A9G G25C G65A G69A was at most 0.026. On to U2C A9G C81G, for which the nonsense suppression was at most 0.026. As for A30C U57G, the nonsense suppression is at most 0.026. Next, G6A C11G A13C G26C: at most 0.026; U22A G26C: at most 0.026; U57A G69A U70A U76C: at most 0.026. Take C12A A30G C79G: the nonsense suppression was at most 0.026. The value for U2G A31G U63G C80G C81A was at most 0.026; that for A23U G85A was at most 0.026. The value for U8C C34G was at most 0.026; that for G67U C72G C77G was at most 0.026.

Regarding U70G C75U G88A, the nonsense suppression was at most 0.026. The value for A23C A62U G88U was at most 0.026. Next, A30G G67U C72U: at most 0.026; U20A G32U G86A: at most 0.026; C1G C3A U70C: at most 0.026. In the case of A54G C82G, the nonsense suppression was at most 0.026. The value for U16A U71A was at most 0.026; that for C1G A89U was at most 0.026; that for A13U G26C was at most 0.026. Turning to U17C U20G A24G U55G, the nonsense suppression is at most 0.026. Next, C27U A74C: 0.0355; G7U G19U G28U G65A: at most 0.026. The value for A13U C72U was at most 0.026. As for U63A G69C G84A, the nonsense suppression is at most 0.026. Next, C1A A31U G84A G88A: at most 0.026; G10A A23U A60C G61C: at most 0.026.

Regarding U2G C75A G88C, the nonsense suppression is at most 0.026. The value for G6A C12A A24G U55C was at most 0.026; that for G15C A60C was at most 0.026.
